ChEMBL document CHEMBL4888484, “Replenishing the malaria drug discovery pipeline: Screening and hit evaluation of the MMV Hit Generation Library 1 (HGL1) against asexual blood stage Plasmodium falciparum ,using a nano luciferase reporter read-out” (2022)
The campaign covered roughly 4,800 compounds. About 420 (8.8%) showed an effect of 50% or more. The list shows a part of the results.

system: Plasmodium falciparum; assay: Confirmatory screen in NF54 nanoGlo assay, in single point, at 2uM, 72h; type: functional, Erythrocyte; details: timepoint 72 hour

| SMILES | % Inhibition |
| --- | --- |
| Cc1noc2c1N=C(c1ccc(F)cc1)C[C@@H](c1ccc(F)cc1)C2 | 1% |
| O=C(NC1CC1)N[C@H]1CCN(C(=O)C(C2CCC2)C2CCC2)C1 | -2% |
| COc1ccc(CCn2cc(C(N)=O)c(-c3ccccc3)n2)cc1 | -12% |
| Cc1nn(C)cc1[C@@H]1CC(=O)Nc2c1cnn2C(C)(C)C | -14% |
| O=C(C[C@H]1CCC(=O)N(Cc2ccccc2)CC1)NC1CCN(Cc2ccccc2)CC1 | -1% |
| O=C(C[C@@H]1NC(=O)c2ccccc2NC1=O)NCc1ccc(Cl)cc1Cl | -11% |
| CCCN(C(=O)c1nccnc1N)C1CC(OCC)C12CCCC2 (stereo not drawn) | -3% |
| CCOc1ccc(-[n+]2cc(-c3ccccc3)n3c2CCC3)cc1 | 80% |
| O=C1CCc2cc(N[C@@H](C(=O)N3CCCC3)c3ccccc3)ccc2N1 | -1% |
| COC(=O)c1cc(NC(=O)N2CCO[C@H](C(=O)OC)C2)c(F)cc1F | -2% |
| Cc1cc(CNC(=O)c2csc(=O)[nH]2)n(C)n1 | 9% |
| Cc1ccc(-n2nnnc2-c2cnc3cc4c(cc3c2C)OCO4)cc1 | -17% |
| CC[C@@](C)(C(=O)NC1CCCC1)N(Cc1ccco1)C(=O)c1ccc2c(c1)OCO2 | -12% |
| COc1ccc(NC(=O)C2=Cc3cc(Cl)cc(OC)c3OC=C2)cc1 | 4% |
| COc1ccc(NC(=O)Cn2cnc3nc(N4CCOCC4)ncc3c2=O)cc1 | 6% |
| COc1ccc(CC[C@](C)(O)c2cc(C(N)=O)no2)cc1 | -9% |
| Cc1cc(F)c(C(=O)OCc2ccc3[nH]nnc3c2)cc1F | -2% |
| CN(C)c1nc(N)cc(-c2cccc3cccnc23)n1 | 44% |
| FC(F)(F)c1cnc(N2CCOC3(CCOCC3)CC2)s1 | -2% |
| CC[C@H]1c2cccn2CCN1C(=O)CCc1cscn1 | -19% |
| Cc1c(CCO)c(=O)n(C)n1C(=O)c1ccc(F)cc1 | 2% |
| CC(C)(C)OC(=O)N1CCC(c2c(C(=O)Nc3ccc(Cl)cc3Cl)cnn2-c2cccc(F)c2)CC1 | 2% |
| CN(C(=O)[C@@H]1CCCN1C(=O)C1CCCC1)C1CCN(c2cnccn2)CC1 | -8% |

| SMILES | % Inhibition |
| --- | --- |
| Cc1nc2nc(N3CCCCC3)sc2c(=O)[nH]1 | -1% |
| Cc1noc(-c2cccc(F)c2)c1C(=O)NCCCN(C)c1ccccc1 | -10% |
| COCCN(Cc1c(-c2ccccc2)noc1N1CCOCC1)C(=O)C1CCCC1 | -3% |
| Cc1cc(C)cc(OCC(=O)NCCCN(C)C)c1 | -10% |
| COc1ccc(-c2onc(C)c2C(=O)NCCOc2ccccc2)cc1 | -7% |
| Cn1cc(N)c(Oc2ccc(F)cc2F)n1 | 2% |
| Nc1nonc1C(=O)N1CCCN(S(=O)(=O)c2cccs2)CC1 | 0% |
| Cc1cc(NC[C@H](O)c2cnn(C)c2)ncc1Br | 9% |
| CCOc1c(Br)cc(/C=C(/NC(C)=O)C(=O)O)cc1Br | 4% |
| CN(C)c1ccc(C(=O)N2CC[C@H]3NC(=O)N(Cc4ccccc4)C(=O)[C@H]32)cc1 | -9% |
| c1ccc2oc(-c3ccnc4nncn34)cc2c1 | -7% |
| CCCc1cc(C(=O)N2CCCCCC2)cs1 | -10% |
| CCc1ccc(CS(=O)(=O)NC(=O)c2cn3ccnc3s2)cc1 | 6% |
| CC(C)NC(=O)N1C[C@H]2CCCC(=O)N(Cc3cccc(F)c3)[C@H]2C1 | 7% |
| COc1ccc(-c2nn3c([C@H]4CCCN(S(C)(=O)=O)C4)nnc3s2)c(OC)c1 | -6% |
| CCc1nnc2cc(N3CCN(C(=O)c4ccc(OC)cc4)CC3)cnn12 | 0% |
| COc1ccc(-c2cc(C(=O)N[C@H]3CCN(c4ccc(=O)n(C)n4)C3)c(C)n2C)cc1 | 62% |
| CCn1c(=O)c(CCC(=O)Nc2cccc(C)c2C)nc2c(C)nn(-c3ccc(C)cc3)c21 | 19% |
| COc1ccc(NC(=O)CC(C)(C)CC(=O)O)cc1 | 2% |
| O=C(N[C@@H](N1CCCCC1)C(Cl)(Cl)Cl)c1ccc(Cl)cc1 | -5% |
| COC(=O)c1ccc(N(C)CC(=O)Nc2cccc(C)c2C)nn1 | -3% |
| Cc1nnc(-c2ccccc2NC(=O)CCC2CCC(C)O2)o1 (stereo not drawn) | -21% |
| O=C(c1cc(-c2ccccc2Cl)nc2ccccc12)n1nnc2ccccc21 | -5% |

| SMILES | % Inhibition |
| --- | --- |
| COc1cc(C(=O)NC(C)(C)c2c(C)noc2C)on1 | -2% |
| CCNC(=O)C(=O)NCc1ccc(OC)cc1 | -17% |
| O=C(CN1CCN(Cc2cccc(Cl)c2)C1=O)NC1CC1 | -4% |
| COc1ccc(-[n+]2c(-c3ccccc3)cn3c2CCC3)cc1 | 77% |
| CC1CCC(N2C[C@@H](C(=O)OCC(C)(C)C)CC2=O)CC1 (stereo partly drawn) | -1% |
| CCc1nn2c(c1-c1ccc(C)cc1)NC(=O)C[C@H]2C(=O)O | 2% |
| O=C(CN1CCC[C@H]1C1CCCC1)NCC1CCCCC1 | 27% |
| CCOC(=O)[C@@H](NC(=O)Nc1ccccc1C(F)(F)F)C(F)(F)F | -1% |
| Cc1nn(CCOc2ccccc2)c(=O)n1-c1ccc(C(C)C)cc1 | 10% |
| COCCN(CC(N)=O)CC(=O)NCc1ccccc1F | 1% |
| CCN1c2cc(C(=O)N3CCCCC3)ccc2C(=O)N2CCCCC[C@H]21 | -6% |
| C[C@H](NC(=O)c1cc(C2CC2)[nH]n1)c1nccs1 | -11% |
| CCN(CCO)S(=O)(=O)c1ccc2c(c1)CCO2 | -7% |
| O=C(NCc1cc(F)cc(F)c1)c1csc(C(=O)N2CCCC2)n1 | -8% |
| Cc1cc(N(C)CCC2CC2)nc([C@H](C)N(C)CCC2CC2)n1 | 52% |
| COC(C)(C)c1nc(Cn2cnc3ccccc32)no1 | 0% |
| O=C1OC(c2ccccc2)=NC1(Cc1ccc(Cl)cc1)Cc1ccc(Cl)cc1 | -4% |
| CN(C)c1ccc(NN=C2N=NN=N2)cc1 | -11% |
| COc1cc(NC(=O)CN2C(=O)N[C@](C)(c3ccc4c(c3)OCCO4)C2=O)c(OC)cc1Cl | 2% |
| Cn1cccc1C(=O)NCCNC(=O)[C@@H]1CCO1 | 4% |
| Cn1cc(CCCNc2ccc(F)cn2)cn1 | 2% |
| O=C(C[C@@H]1C=CCC1)Nc1nc(-c2ccc(Cl)cc2)cs1 | 2% |
